According to PubChem BioAssay AID686970 (National Center for Advancing Translational Sciences (NCATS), 2013):
Out of some 360,000 compounds screened, about 6,000 (1.7%) were called active. This list was built around the results that the source calls inconclusive (neither active nor inactive); the mix of calls is not that of the screen. Calls follow the shape of the dose curve; as a rule, active = well fitted cell-killing curve with a large enough effect; inconclusive = small, poorly fitted or top-dose-only effect, or effect the other way; inactive = flat fitted curve, though single readings scatter. No potency is given beside an inconclusive call; the fits are too rough.

Test: qHTS for induction of synthetic lethality in tumor cells producing 2HG: qHTS for the HT-1080-NT fibrosarcoma cell line;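 also: NT is the 2HG producing partner of a matched IDH1 knockdown line; nearly all actives have a fitted effect of over 55% in size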;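 as to activity, negative = less viability: 0% = DMSO-treated cells and -100% = media-only wells without cells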
Conditions: HT-1080-NT fibrosarcoma viability, CellTiter-Glo ATP luminescence, 48 h; activity, negative = less viability: at 46.1 µM (top of the series) unless noted
Procedure, shortened: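 Viability of the 2HG-overproducing fibrosarcoma line after 48 hours of compound exposure at 37 degrees C was determined by luminescence with CellTiter-Glo, and concentration-effect curves were then fitted and categorized.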
Potency is read from the fitted curve at half-maximal effect; tags tell the direction and shape of the fitted curve.

| SMILES | Potency | activity, negative = less viability |
| --- | --- | --- |
| Oc1cccc(/C=N/Nc2ccc(Cl)nn2)c1O | inconclusive [cytotoxic, single point] |  |
| CCNC(=O)C[C@@H]1CC[C@H]2[C@@H](COC[C@H](O)CN2C(=O)C2CC2)O1 | inconclusive [rising, single point] |  |
| CCn1cc(C(=O)NCc2ccco2)c(=O)c2cc(S(=O)(=O)N3CCc4ccccc4C3)ccc21 | inconclusive [cytotoxic, single point] |  |
| Brc1ccc2c(c1)OCCOCCOc1cc(Br)ccc1OCCOCCOCCO2 | inconclusive [cytotoxic, single point] |  |
| O=C(Nc1nc(-c2cccnc2)cs1)c1ccccc1F | inconclusive [cytotoxic, single point] |  |
| CCN1CCN(C(=O)CCN2C(=O)c3ccccc3C2=O)CC1 | inconclusive [rising, single point] |  |
| Cc1ccc(-c2nnn(CC(=O)N(Cc3cccs3)C(C(=O)NC3CCCCC3)c3ccco3)n2)o1 (stereo not drawn) | inactive |  |
| COc1ccc(/C=C2\SC(=S)N(CCC(=O)N(CCO)Cc3ccccc3)C2=O)cc1OC | inconclusive [cytotoxic, single point] |  |
| CC(NC(=O)Cn1ccsc1=N)C12CC3CC(CC(C3)C1)C2 (stereo not drawn) | inconclusive [cytotoxic, single point] |  |
| COc1cc(/C=C2/CCC/C(=C\c3cc(O)c(OC)c(Cl)c3)C2=O)cc(Cl)c1O | inconclusive [cytotoxic, single point] |  |
| COc1cc(/C=C2\SC(=S)N(CCC(=O)Nc3cccc(O)c3)C2=O)cc(OC)c1OC | inconclusive [cytotoxic, single point] |  |
| Cn1c(N2CCN(C(=O)Nc3ccc(C(F)(F)F)cc3)CC2)nc2ccccc21 | inactive |  |
| OC(c1ccc(-c2ccccc2)cc1)c1ncc(-c2ccc(C(F)(F)F)cc2)[nH]1 (stereo not drawn) | inconclusive [cytotoxic, single point] |  |
| COc1ccc(C2c3ccc(O)cc3Oc3ncn(Cc4ccccc4)c(=N)c32)cc1OC (stereo not drawn) | inconclusive [cytotoxic, partial curve] |  |
| CCc1ccc(OCC(=O)NNC(=O)c2ccc(NC(=O)C3CC3)cc2)cc1 | inactive |  |
| Oc1c(CN2CCN(c3ccc(F)cc3)CC2)cc(Cl)c2cccnc12 | inconclusive [cytotoxic, partial curve] |  |
| CCC1CCCCN1S(=O)(=O)c1ccc(NC(=O)c2cccs2)cc1 (stereo not drawn) | inconclusive [cytotoxic, single point] |  |
| COc1cc(/C=N/Nc2snc(SC)c2C#N)ccc1O | inconclusive [cytotoxic, full curve] |  |
| CC1C(=O)C(C)(C)C(=O)OC1c1ccccc1 (stereo not drawn) | inactive |  |
| CC(=O)c1cccc(N(C(=O)CNC(=O)c2cccs2)C(C(=O)NCC2CCCO2)c2ccccc2)c1 (stereo not drawn) | inactive |  |
| COc1cccc(-c2nnc(NC(=O)c3cccs3)s2)c1 | inconclusive [rising, partial curve] |  |
| CCOc1ccccc1NC(=O)c1ccccc1N(C)S(=O)(=O)c1ccc(C)cc1 | inactive |  |
| O=C(CCn1c(=O)c2sccc2n(CC(=O)NCc2ccco2)c1=O)NCc1ccccc1 | active: 0.1 µM |  |

| SMILES | Potency | activity, negative = less viability |
| --- | --- | --- |
| CSc1ccc(CN(C)C(=O)COc2ccc(C(=O)c3ccccc3)cc2)cc1 | inconclusive [cytotoxic, partial curve] |  |
| CN(C)CCN(C(=O)c1ccc(S(=O)(=O)N2CCc3ccccc32)cc1)c1nc2ccc(F)cc2s1 | inactive |  |
| COc1ccccc1C1/C(=C(/O)c2cnn(-c3ccccc3)c2C)C(=O)C(=O)N1CCN(C)C (stereo not drawn) | inconclusive [rising, partial curve] |  |
| O=C(Nc1ccc(NC(=O)c2sc3ccccc3c2Cl)cc1Cl)c1ccco1 | inconclusive [cytotoxic, single point] |  |
| O=c1cc(-c2ccccc2)oc2cccc(O)c12 | inactive |  |
| CCOCCCNC(=S)NCCCNc1nc2c(C)c(C)ccc2cc1C#N | inconclusive [cytotoxic, single point] |  |
| CCOc1ccccc1C(=O)OCC(=O)Nc1cccc(S(=O)(=O)N2CCCC2)c1 |  | inactive: -3.14% [at 9.24 µM] |
| CCOc1cc(/C=N/Nc2nncc(-c3ccccc3)n2)ccc1O | inconclusive [cytotoxic, single point] |  |
| CCN1C(=O)/C(=C/c2nc3ccccc3c(=O)[nH]2)c2ccccc21 | inactive |  |
| Cn1ncc([N+](=O)[O-])c1C(=O)N/N=C/c1cccc([N+](=O)[O-])c1 | inactive |  |
| Cc1ccc(C)c(N2CCN(S(=O)(=O)c3ccc4c(c3)NC(=O)CS4)CC2)c1 | inconclusive [cytotoxic, single point] |  |
| COc1ccc(Cl)cc1NC(=O)CN(C)CC(=O)Nc1ccc(Br)cc1 | inconclusive [cytotoxic, single point] |  |
| Cc1sc2nc(C(C)C)nc(SCC(=O)NCc3ccco3)c2c1C | inconclusive [cytotoxic, single point] |  |
| O=c1[nH]c2ccccc2nc1-c1cccs1 | inconclusive [cytotoxic, single point] |  |
| O=C(COC(=O)Cc1ccc(Cl)cc1Cl)NCc1ccco1 | inactive |  |
| CC(C)C(c1nnnn1Cc1cccs1)N1CCN(c2ccccc2)CC1 (stereo not drawn) | inactive |  |
| Fc1cnc(N/N=C/c2ccc(-c3ccc(Br)cc3)o2)nc1N1CCOCC1 | inactive |  |
| CCCSc1nsc(NC(=O)C(c2ccccc2)c2ccccc2)n1 | inconclusive [cytotoxic, single point] |  |
| O=C1c2ccccc2NC(c2ccc(Br)s2)N1O (stereo not drawn) | inconclusive [cytotoxic, single point] |  |
| COc1cccc(-c2nc(N3CCC(C)CC3)c3ccccc3n2)c1O | inconclusive [cytotoxic, single point] |  |
| COc1cccc(-c2ccc(C3=CC(=O)CC(C)(C)C3=O)cc2)c1OC | inactive |  |
| O=C(CSc1nc2nc(-c3cccs3)cc(C(F)(F)F)c2c(=O)[nH]1)C(F)(F)F | inconclusive [cytotoxic, single point] |  |
| CN(Cc1cn(Cc2ccc(C(F)(F)F)cc2)nn1)C1CN(Cc2cn(Cc3ccc(C(F)(F)F)cc3)nn2)S(=O)(=O)C1 (stereo not drawn) | inconclusive [cytotoxic, single point] |  |

| SMILES | Potency | activity, negative = less viability |
| --- | --- | --- |
| NC(=S)NNC(=O)c1ccccc1 | inconclusive [cytotoxic, single point] |  |
| Cc1cc(=O)[nH]c(N/N=C/c2ccccn2)n1 | inconclusive [cytotoxic, partial curve] |  |
| COc1ccc(-c2nc(C#N)c(N3CCc4ccccc4C3)o2)cc1OC |  | inconclusive: -31.6% [cytotoxic] |
| Cc1nc2c(C(=O)N3CCN(c4ccccn4)CC3)cnn2c(C)c1Cc1cccc(Cl)c1 | inconclusive [cytotoxic, single point] |  |
| O=C(NCCc1cccnc1)c1cc(COc2ccc(F)cc2F)on1 | inconclusive [cytotoxic, single point] |  |
| C=CCn1c(SCC(=O)Nc2cc(C)c(Cl)cc2OC)nnc1-c1ccco1 | inconclusive [cytotoxic, single point] |  |
| COc1ccc(NC(=O)Nc2cccc(NC(C)=O)c2)c(OC)c1 | inconclusive [rising, single point] |  |
| Cc1ccc2[nH]c(C)c(/C=C/c3cc[n+](C)cc3)c2c1 | inconclusive [cytotoxic, single point] |  |
| CCN1C(=O)[C@H]2[C@H]3CN=C(SCc4ccc(Cl)cc4)N3[C@@](C)(C(=O)OC)[C@H]2C1=O | inactive |  |
| COc1ccc(C(=O)NC2CCCc3ccccc32)cc1[N+](=O)[O-] (stereo not drawn) | inconclusive [cytotoxic, single point] |  |
| COc1cccc(NC(=O)CCCCCn2nnc3ccccc3c2=O)c1 | inconclusive [cytotoxic, partial curve] |  |
| O=C(NCCN1CCOCC1)c1noc2c1CCc1ccccc1-2 | inactive |  |
| CCCc1[nH]nc2c1C(/C(C)=C/c1ccccc1)C(C#N)=C(N)O2 (stereo not drawn) | inconclusive [cytotoxic, partial curve, poor fit] |  |
| COc1ccc(CCC(=O)OCc2csc(CC(=O)Nc3ccccc3C)n2)cc1 | inactive |  |
| O=C(N/N=C/c1cc(Cl)ccc1O)c1cccnc1 |  | inconclusive: -15.5% [cytotoxic] |
| C(=C\c1ccccc1)/CN1CCN(C(c2ccccc2)c2nnnn2-c2ccc3c(c2)OCCO3)CC1 (stereo not drawn) | inconclusive [cytotoxic, single point] |  |
| COc1ccccc1Oc1ccc(-c2cnc3ccccc3n2)cc1[N+](=O)[O-] | inconclusive [cytotoxic, single point] |  |
| Cc1cc2oc(C(=O)Nc3nonc3C)c(C)c2cc1C | inconclusive [rising, full curve] |  |
| C[C@H](NC(=O)c1nc[nH]c1C(=O)NCc1ccc(CNC(=O)OC(C)(C)C)cc1)c1ccccc1 | inconclusive [cytotoxic, single point] |  |
| Cc1cc(C)cc(NC(=S)Nc2ccc(Cl)c(Cl)c2)c1 | inconclusive [cytotoxic, single point] |  |
| CCC(C)Sc1cccc(-c2nc3cc(C)ccn3c2NC2CCCCC2)c1 (stereo not drawn) | active: 11.6 µM |  |
| CC1CCCN(CCOc2cccc(Oc3ccccc3)c2)C1 (stereo not drawn) |  | inconclusive: 0.511% |
